# From the supplement of paper PMC8728848
# The other results are listed elsewhere or left out.
# B1: PfulAvr4 2 (Pseudocercospora fuligena) (protein)
# chain: HHHHHHDYKDDDDKAKPIKPFACPPKDFTTTKCQGPVDCLYANPLSCLGYIQCVCDDDACSTATPYAKSCPTGLAWVEKLKRCDGIKKSACPKKMYEGS
# Experiments:
# Experiment in all cases: glycan array binding signal (z-score within array); higher = stronger binding
# Details in all cases: glycan notation: IUPAC condensed, linker removed
# [1] = molecular target: Neu5Ac(a2-3)Gal(b1-4)GlcNAc(b1-2)[Neu5Ac(a2-3)Gal(b1-4)GlcNAc(b1-4)]Man(a1-3)[GlcNAc(b1-4)][Neu5Ac(a2-3)Gal(b1-4)GlcNAc(b1-2)[Neu5Ac(a2-3)Gal(b1-4)GlcNAc(b1-6)]Man(a1-6)]Man(b1-4)GlcNAc(b1-4)GlcNAc
# Outline: (§1)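 Arrays were curated from the Consortium for Functional Glycomics database, 3228 in total, and kept only where the protein sequence was available. Binding is expressed as a within-array Z-score. This score was averaged across arrays of the same protein sequence at different concentrations or buffers and across linkers, and negative values can be read as non-binding.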
# [2] = molecular target: Neu5Ac(a2-3)Gal(b1-4)GlcNAc(b1-2)[Neu5Ac(a2-3)Gal(b1-4)GlcNAc(b1-4)]Man(a1-3)[GlcNAc(b1-4)][Neu5Ac(a2-3)Gal(b1-4)GlcNAc(b1-4)Man(a1-6)]Man(b1-4)GlcNAc(b1-4)GlcNAc
# Outline: as §1
# [3] = molecular target: Neu5Ac(a2-3)Gal(b1-4)GlcNAc(b1-2)[Neu5Ac(a2-3)Gal(b1-4)GlcNAc(b1-6)]Man(a1-6)[Neu5Ac(a2-3)Gal(b1-4)GlcNAc(b1-2)Man(a1-3)][GlcNAc(b1-4)]Man(b1-4)GlcNAc(b1-4)GlcNAc
# Outline: as §1
# [4] = molecular target: Neu5Ac(a2-3)Gal(b1-4)GlcNAc(b1-3)Gal
# Outline: as §1
# [5] = molecular target: Neu5Ac(a2-3)Gal(b1-4)GlcNAc(b1-3)Gal(b1-3)GlcNAc
# Outline: as §1
# [6] = molecular target: Neu5Ac(a2-3)Gal(b1-4)GlcNAc(b1-3)Gal(b1-4)GlcNAc
# Outline: as §1
# [7] = molecular target: Neu5Ac(a2-3)Gal(b1-4)GlcNAc(b1-3)Gal(b1-4)GlcNAc(b1-2)Man(a1-3)[Neu5Ac(a2-3)Gal(b1-4)GlcNAc(b1-3)Gal(b1-4)GlcNAc(b1-2)Man(a1-6)]Man(b1-4)GlcNAc(b1-4)GlcNAc
# Outline: as §1
# [8] = molecular target: Neu5Ac(a2-3)Gal(b1-4)GlcNAc(b1-3)Gal(b1-4)GlcNAc(b1-3)Gal(b1-4)GlcNAc
# Outline: as §1
# [9] = molecular target: Neu5Ac(a2-3)Gal(b1-4)GlcNAc(b1-3)Gal(b1-4)GlcNAc(b1-3)Gal(b1-4)GlcNAc(b1-2)Man(a1-3)[Neu5Ac(a2-3)Gal(b1-4)GlcNAc(b1-3)Gal(b1-4)GlcNAc(b1-3)Gal(b1-4)GlcNAc(b1-2)Man(a1-6)]GalNAc
# Outline: as §1
# [10] = molecular target: Neu5Ac(a2-3)Gal(b1-4)GlcNAc(b1-3)Gal(b1-4)GlcNAc(b1-3)GalNAc
# Outline: as §1
# [11] = molecular target: Neu5Ac(a2-3)Gal(b1-4)GlcNAc(b1-3)Gal(b1-4)GlcNAc(b1-3)[Neu5Ac(a2-3)Gal(b1-4)GlcNAc(b1-3)Gal(b1-4)GlcNAc(b1-6)]GalNAc
# Outline: as §1
# [12] = molecular target: Neu5Ac(a2-3)Gal(b1-4)GlcNAc(b1-3)Gal(b1-4)GlcNAc(b1-6)[Gal(b1-3)]GalNAc
# Outline: as §1
# [13] = molecular target: Neu5Ac(a2-3)Gal(b1-4)GlcNAc(b1-3)Gal(b1-4)[Fuc(a1-3)]GlcNAc
# Outline: as §1
# [14] = molecular target: Neu5Ac(a2-3)Gal(b1-4)GlcNAc(b1-3)GalNAc
# Outline: as §1
# [15] = molecular target: Neu5Ac(a2-3)Gal(b1-4)GlcNAc(b1-3)[Neu5Ac(a2-3)Gal(b1-4)GlcNAc(b1-6)]GalNAc
# Outline: as §1
# [16] = molecular target: Neu5Ac(a2-3)Gal(b1-4)GlcNAc(b1-6)GalNAc
# Outline: as §1
# [17] = molecular target: Neu5Ac(a2-3)Gal(b1-4)GlcNAc(b1-6)[Gal(b1-3)]GalNAc
# Outline: as §1
# [18] = molecular target: Neu5Ac(a2-3)Gal(b1-4)GlcNAc(b1-6)[Neu5Ac(a2-3)Gal(b1-3)]GalNAc
# Outline: as §1
# [19] = molecular target: Neu5Ac(a2-3)Gal(b1-4)GlcNAc6S
# Outline: as §1
# [20] = molecular target: Neu5Ac(a2-3)Gal(b1-4)[Fuc(a1-3)]GlcNAc
# Outline: as §1
# [21] = molecular target: Neu5Ac(a2-3)Gal(b1-4)[Fuc(a1-3)]GlcNAc(b1-2)Man
# Outline: as §1
# [22] = molecular target: Neu5Ac(a2-3)Gal(b1-4)[Fuc(a1-3)]GlcNAc(b1-3)Gal
# Outline: as §1
binder,measurement,setting,value
B1,glycan array binding signal (z-score),[1],-0.21
same,glycan array binding signal (z-score),[2],-0.253
same,glycan array binding signal (z-score),[3],-0.258
same,glycan array binding signal (z-score),[4],-0.42
same,glycan array binding signal (z-score),[5],-0.328
same,glycan array binding signal (z-score),[6],-0.163
same,glycan array binding signal (z-score),[7],-0.146
same,glycan array binding signal (z-score),[8],-0.253
same,glycan array binding signal (z-score),[9],0.162
same,glycan array binding signal (z-score),[10],-0.259
same,glycan array binding signal (z-score),[11],-0.158
same,glycan array binding signal (z-score),[12],-0.409
same,glycan array binding signal (z-score),[13],-0.257
same,glycan array binding signal (z-score),[14],-0.13
same,glycan array binding signal (z-score),[15],-0.217
same,glycan array binding signal (z-score),[16],-0.202
same,glycan array binding signal (z-score),[17],1.5
same,glycan array binding signal (z-score),[18],-0.285
same,glycan array binding signal (z-score),[19],-0.19
same,glycan array binding signal (z-score),[20],-0.366
same,glycan array binding signal (z-score),[21],-0.294
same,glycan array binding signal (z-score),[22],-0.308
